The text below walks through data of patent publication US20100169988A1 (published 2010).

The target of the test is APP-TAP-AICD (human, UniProt P05067). The test can be described thus: streptavidin purification of APP-TAP-AICD from brain homogenate; iTRAQ 116/114, transgenic mouse 75 vs control mouse 72; MALDI-TOF/TOF.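 Also: relative protein abundance in the transgenic versus control pull-down, limited to proteins with high quality scores and above-average enrichment, without full normalization across the whole measurement.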

B1: ATP synthase beta chain; mitochondrial precursor (enzyme)
chain: not shown
Consider B1, for which the iTRAQ ratio is 5.02.
